The campaign covered roughly 48,000 compounds. About 550 (1.1%) were called active. Another 4% or so got no clear call; they are omitted. No stated cut-off is given here; in the data, active means potency below about 15 µM; inconclusive means mostly about 16 µM to 33 µM; inactive means weaker than that. The list shows a part of the results.
biological target: Lysosomal acid glucosylceramidase (Homo sapiens) (UniProt P04062); experiment: Glucocerebrosidase; settings: purified enzyme, resorufin glucoside fluorescence (screen aimed at inhibitors), 20 min; series mostly up to 77 µM;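 further: the screen sought inhibitors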
Outline: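 Wild-type enzyme at 0.2 nM final in 50mM citric acid/KH2PO4, 10mM sodium taurocholate, 0.01% tween-20, pH 5.9, with resorufin beta-D-glucopyranoside at 30 uM final. Compounds titrated, 20 min at RT, red fluorescence read; AC50 from titration.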
Potency means the concentration at half of the fitted maximal effect.

UniProt P04062, sequence (P04062 whole entry, looked up): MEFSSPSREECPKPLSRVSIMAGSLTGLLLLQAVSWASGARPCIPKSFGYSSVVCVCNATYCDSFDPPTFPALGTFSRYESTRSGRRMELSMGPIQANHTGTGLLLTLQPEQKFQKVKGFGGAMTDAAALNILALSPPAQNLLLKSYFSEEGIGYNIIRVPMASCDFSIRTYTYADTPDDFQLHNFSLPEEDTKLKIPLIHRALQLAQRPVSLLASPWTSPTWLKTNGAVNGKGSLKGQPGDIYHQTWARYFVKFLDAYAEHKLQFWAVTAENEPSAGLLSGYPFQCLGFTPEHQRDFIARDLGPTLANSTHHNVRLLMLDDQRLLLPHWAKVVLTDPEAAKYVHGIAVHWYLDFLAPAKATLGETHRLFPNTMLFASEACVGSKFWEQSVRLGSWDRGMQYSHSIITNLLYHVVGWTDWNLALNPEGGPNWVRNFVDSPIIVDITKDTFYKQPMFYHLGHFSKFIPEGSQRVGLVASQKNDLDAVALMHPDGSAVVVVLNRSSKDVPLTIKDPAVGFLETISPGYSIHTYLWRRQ

Potency, inactive:
CC(C(=O)Nc1ccc(S(=O)(=O)N2CCOCC2)cc1)N(c1ccccc1)S(C)(=O)=O (centres undefined) > 76.9 µM, Cc1cc(C)nc(SCc2cccc(C(=O)O)c2)n1 > 76.9 µM, Cc1cc(C)cc(NC(=O)CN(C)S(=O)(=O)c2cnc[nH]2)c1 > 76.9 µM, Cc1cc(S(=O)(=O)N2CCCC2)ccc1OCC(=O)NCc1ccco1 > 76.9 µM, O=P(O)(O)COc1ccccc1P(=O)(c1ccccc1)c1ccccc1 > 76.9 µM, CCN(CC)S(=O)(=O)c1ccc(NC(=O)COc2c(OC)cccc2OC)cc1 > 76.9 µM, O=C(Nc1ccc2c3c(cccc13)CC2)c1ccco1 > 76.9 µM, CCOc1ccc(-c2nnn(CC(=O)N3CCN(c4ccc(OC)cc4)CC3)n2)cc1OCC > 76.9 µM, COCC(N)(c1ccccc1)c1nc2ccccc2n1C (centres undefined) > 76.9 µM, COC(=O)CSc1nc(C2CC2)cc(C(F)(F)F)c1C#N > 76.9 µM, Cn1nc(C(=O)NCc2ccccc2)c2ccccc2c1=O > 76.9 µM, O=C(O)CCn1c(C(=O)O)cc2sccc21 > 76.9 µM, CCOC(=O)C1=C(c2ccccc2)NC(=O)NC1c1ccc(OCC#N)c(OC)c1 (centres undefined) > 76.9 µM, CCn1c(SCC(=O)NCc2ccccc2)nc2ccccc2c1=O > 76.9 µM, C=CCN1C(=O)C(CC(=O)NCC)SC1=Nc1ccc(S(N)(=O)=O)cc1 (centres undefined) > 76.9 µM, COc1cc(OC)c(C(=O)Oc2ccc3c(c2)OCO3)cc1OC > 76.9 µM, CCOC(=O)N1CCC(NS(=O)(=O)c2cc3c(cc2Cl)NC(=O)CO3)CC1 > 76.9 µM, O=C(NC1CCCCCC1)c1cccc(N2CCCC2=O)c1 > 76.9 µM, CCC(=O)Nc1ccc(Cl)c(NC(=O)c2ccc(Br)o2)c1 > 76.9 µM, CCCOc1ccc(C(=O)Nn2c(C)nc3ccccc3c2=O)cc1 > 76.9 µM, COC(=O)C1=C(C)OC(N)=C(C#N)C1c1ccccc1 (centres undefined) > 76.9 µM, CCCCOC(=O)C1=C(C)Nc2ncnn2C1c1ccc(OC)c(OC)c1 (centres undefined) > 76.9 µM, COC(=O)C1C(c2ccccc2)C(C(=O)N2CCN(C)CC2)C1c1ccccc1 (centres undefined) > 76.9 µM, CCNCCNC(=O)c1c(O)c2cccc3c2n(c1=O)CCC3 > 76.9 µM, CCC1CCCCN1S(=O)(=O)c1ccc(NC(=O)CSc2ncccc2C(=O)O)cc1 (centres undefined) > 76.9 µM, COCCN1Cc2cccc(C(=O)NCc3ccccc3OC)c2C1=O > 76.9 µM, O=C(OCC#CCSc1nc2ccccc2s1)c1ccco1 > 76.9 µM, CCP(=O)(CC)c1cccc(N)c1 > 76.9 µM, O=C1C2C3C=CC(C3)C2C(=O)N1CCCO (centres undefined) > 76.9 µM, CCc1oc2ccccc2c1C(=O)CCN1CCCCC1 > 76.9 µM, CC1Cc2nc(SCC(=O)Nc3ccc4c(c3)OCCO4)n(C)c(=O)c2S1 (centres undefined) > 76.9 µM, Cc1ccc(NC2=CC(=O)CC(C)(C)C2)c(N)c1 > 76.9 µM, CC1=C(C(=O)Nc2ccccc2)C(c2ccc3c(c2)OCO3)C2=C(CCCC2=O)N1 (centres undefined) > 76.9 µM, COc1ccccc1C1/C(=C(/O)c2ccccc2)C(=O)C(=O)N1CCO (centres undefined) > 76.9 µM, NC(=S)c1ccc(C(N)=S)o1 > 76.9 µM, CC(Oc1ccc(Cl)cc1Cl)C(=O)NC1CCSC1=O (centres undefined) > 76.9 µM, CC1Oc2ccccc2N(CC(=O)Nc2ccc3c(c2)OCO3)C1=O (centres undefined) > 76.9 µM, CCCc1nnc(NC(=O)CCC(=O)N2CCCCC2CC)s1 (centres undefined) > 76.9 µM, Cc1ccc(-c2noc(C3CCCN(C(=O)C4CCCCC4)C3)n2)o1 (centres undefined) > 76.9 µM, CCN=C1SC(C(=O)Nc2cccc(OCC)c2)CC(=O)N1CC (centres undefined) > 76.9 µM, CC1CCN(C(=O)CSc2nnc(CN3CCOCC3)n2-c2ccccc2)CC1 > 76.9 µM, CCCN(CCC)c1ncnc2c1cnn2-c1ccc(OC)cc1 > 76.9 µM, CCC(C)NC(=O)C1CCC(=O)N1Cc1ccc(C)cc1 (centres undefined) > 76.9 µM, CCC(CO)NC(=O)c1cccc(S(=O)(=O)N2c3ccccc3CC2C)c1 (centres undefined) > 76.9 µM, O=C(CCN1C(=O)c2ccccc2C1=O)Nc1ccc(S(=O)(=O)NC2=NCCCCC2)cc1 > 76.9 µM, CCN(CC)C(=O)CN(C)S(=O)(=O)c1cccc2nsnc12 > 76.9 µM, Cc1cc(C)cc(C(=O)N2CCC(C(N)=O)CC2)c1 > 76.9 µM, COc1cc(CN2CCN(S(=O)(=O)c3ccc(F)cc3)CC2)cc(OC)c1OC > 76.9 µM, CCOC(=O)CSc1nnc(CNC(=O)c2ccco2)n1C > 76.9 µM, O=C(Nc1cc(C(F)(F)F)ccc1N1CCOCC1)c1c(F)c(F)c(F)c(F)c1F > 76.9 µM, CCCCOc1ccc(/C=c2\sc3ncnn3c2=O)cc1 > 76.9 µM, O=C(CN1CCCC1=O)NC1(C(F)(F)F)NC(=O)N(Cc2ccccc2)C1=O (centres undefined) > 76.9 µM, Cc1noc(C)c1CN1C(=O)NC2(CCc3ccccc3C2)C1=O (centres undefined) > 76.9 µM, Cc1csc(SCC(=O)Nc2ccc(Cl)cn2)n1 > 76.9 µM, CCCCn1nnnc1SCC(=O)Nc1ccc2c(c1)OCCO2 > 76.9 µM, Cc1ccc2nc(SCC(=O)NC(=O)NCc3ccco3)[nH]c2c1 > 76.9 µM, O=C(Nc1ncc2c(n1)CC(c1ccccc1)CC2=O)c1ccco1 (centres undefined) > 76.9 µM, COc1ccc(OC)c(C(=O)CSc2nc3c(c(=O)n(C)c(=O)n3C)n2C(C)C)c1 > 76.9 µM, C=CCn1c(N)c(-c2nc3ccccc3n2C)sc1=S > 76.9 µM

From PubChem BioAssay AID360 (National Center for Advancing Translational Sciences (NCATS), 2006)
